Hit rate of the full screen: of about 48,000 compounds, about 450 (0.94%) were called active. This list was built around the results that the source calls inconclusive (neither active nor inactive); the mix of calls is not that of the screen. The call rests on the fitted dose curve; in most records, active means well fitted inhibition curve with a large enough effect; inconclusive means small, poorly fitted or top-dose-only effect; inactive means no such curve, though single readings can be large or run the other way. Potencies beside an inconclusive call are fits to weak or partial responses and may not hold up.
Assay: Primary qHTS for Identification of Small Molecule Inhibitors of Huntingtin Promoter Activity; further: nearly all actives have a fitted effect of over 50% in size
Conditions: HEK293 HTT promoter firefly luciferase reporter (activity 0% = vehicle and -100% = no light), 24 h; activity change, negative = inhibition: at 57.5 µM (top of the series)
Outline: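 Firefly luciferase readout (Dual-Glo, 10 min RT) after 24 h, 37 °C compound exposure (final up to 57.5 uM) of HEK293 reporter cells cultured 24 h beforehand; PTC124 at 50 uM final as control inhibitor; activity scaled vehicle 0%, zero RLU -100%.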
Potency means the concentration at half of the fitted maximal effect; tags describe the fitted curve by direction and shape.

SMILES	activity change, negative = inhibition	Potency
Oc1cccc(Nc2nc(-c3ccccc3)nc3ccccc23)c1	inactive: -18.2%	
O=C(CSC1=Nc2ccccc2C2=NC(CCC(=O)NC3CCCCC3)C(=O)N12)Nc1cccc(Cl)c1 (stereo not given)		inconclusive: 35.5 µM [inhibitor, single point]
CCOC(=O)c1c(C)[nH]c(C)c1S(=O)(=O)N(C)CC(=O)Nc1cc(Cl)ccc1OC		inconclusive: 31.6 µM [inhibitor, partial curve, poor fit]
COc1ccc(CNC(=O)c2ccc3c(c2)N(Cc2c(F)cccc2Cl)C(=O)CS3)cc1		inconclusive: 39.8 µM [inhibitor, partial curve, poor fit]
CCOC(=O)CSc1nc2ccc(NC(=O)c3cccc(F)c3)cc2s1	inactive: -12.8%	
CCOc1ccc(NS(=O)(=O)c2ccc3[nH]c4c(c3c2)CCCCC4)cc1		inconclusive: 25.1 µM [inhibitor, partial curve, poor fit]
CCOc1ccccc1NS(=O)(=O)c1ccc2c(c1)oc(=O)n2C		inconclusive: 39.8 µM [inhibitor, single point]
O=C(CN1C(=O)CCn2nc(-c3ccccc3)cc21)NCc1ccc(Cl)cc1		inconclusive: 39.8 µM [inhibitor, partial curve, poor fit]
COc1cccc(OC)c1C(=O)NCCc1csc(-c2ccc(Cl)cc2)n1		inconclusive: 35.5 µM [inhibitor, partial curve, poor fit]
CC(C)=CCCC(C)=CCCC(C)=CCCC(C)=CCCC(C)=CCCC(C)=CCCC(C)=CCCC(C)=CCCC(C)=CCO	inactive: -23.5%	
CCOC(=O)c1c(Nc2ccc(OC)cc2)nnc(-c2ccccc2)c1-c1ccccc1		inconclusive: 39.8 µM [inhibitor, single point]
CCOc1ccc(NC(=O)COc2ccc(S(=O)(=O)NC3CCCCC3)cc2)cc1		inconclusive: 39.8 µM [inhibitor, single point]
COc1ccc(-c2csc(=Nc3ccccc3)n2CCO)cc1F		inconclusive: 28.2 µM [inhibitor, single point]
CCOc1ccc(CNC(=O)Cc2ccc(NC(=O)N3CCSc4ncccc43)cc2)cc1		inconclusive: 20 µM [inhibitor, partial curve]
Cc1cccc(-c2nc3scc(CCNS(=O)(=O)c4ccc5c(c4)OCCO5)n3n2)c1		inconclusive: 31.6 µM [inhibitor, partial curve, poor fit]
COc1ccc(Nc2c(-c3cccc(O)c3)nc3cnccn23)cc1	inactive: 7.04%	
CCOC(=O)N1CCc2c(sc3c2c(=O)n(-c2ccc(Cl)cc2)c(=O)n3CC(C)C)C1	inactive: 2.89%	
COc1ccccc1-c1cc(C(=O)NCc2ccccc2)c2c(-c3ccc(C)cc3)[nH]nc2n1		inconclusive: 31.6 µM [inhibitor, partial curve, poor fit]
Cc1cccc(C2CC(=O)Nc3cc4c(cc32)OCO4)c1 (stereo not given)		inconclusive: 20 µM [inhibitor, partial curve, poor fit]
CCc1ccc(NC(=O)CN2C(=O)C3(SCC(=O)N3c3ccc(F)c(F)c3)c3ccccc32)cc1 (stereo not given)		inconclusive: 25.1 µM [inhibitor, single point]

SMILES	activity change, negative = inhibition	Potency
O=C(Cc1ccc(-c2ccccc2)cc1)NCCS(=O)(=O)N1CCN(c2ccccc2)CC1		inconclusive: 35.5 µM [inhibitor, partial curve, poor fit]
O=C(CSc1nc(-c2ccc(F)cc2)[nH]c1-c1ccc(F)cc1)Nc1ccc2c(c1)OCO2		inconclusive: 25.1 µM [inhibitor, partial curve, poor fit]
COc1cc(NC(=O)CSc2ccc(-c3ccccn3)nn2)cc(OC)c1		inconclusive: 39.8 µM [inhibitor, single point]
Cc1ccc(CNC(=O)c2ccc(CS(=O)Cc3cccc(Cl)c3)o2)cc1 (stereo not given)		inconclusive: 25.1 µM [inhibitor, partial curve, poor fit]
Cc1cc(Nc2cccc(C(F)(F)F)c2)nc2ccc(NC(=O)c3cccc(Cl)c3)cc12		inconclusive: 35.5 µM [inhibitor, single point]
O=S(=O)(c1cccc2ccccc12)N1CCN(c2ccc(Cl)c(Cl)c2)CC1	inactive: -2.61%	
CCOc1ccc(CNCc2c(C(=O)O)c(C)n(Cc3c(F)cccc3Cl)c2C)cc1OC	inactive: -11.4%	
CCc1cccc(NC(=O)CN(C)S(=O)(=O)c2ccc3c(c2)CCCN3C(C)=O)c1		inconclusive: 22.4 µM [inhibitor, partial curve, poor fit]
CCc1nn2c(=O)c(S(=O)(=O)Nc3ccc(Cl)cc3)c(C)nc2s1		inconclusive: 25.1 µM [inhibitor, single point]
CSc1nc2c(sc3ccccc32)c(=O)n1Cc1ccc(C)cc1	inactive: -3.05%	
O=C(NCCc1ccc(Cl)cc1)C(=O)NCC(c1cccs1)S(=O)(=O)c1cccs1 (stereo not given)		inconclusive: 25.1 µM [inhibitor, partial curve, poor fit]
O=C(Nc1ccc2nc(SCC(=O)N3CCOCC3)sc2c1)c1ccc(Br)cc1		inconclusive: 22.4 µM [inhibitor, partial curve, poor fit]
COc1ccc(C(=O)Nc2cc(-c3nc4ccccc4s3)ccc2OC)cc1	inactive: 7.26%	
O=C(NCCc1ccccc1)c1ccc(Cn2c(SCc3ccccc3F)nc3cccnc32)cc1		inconclusive: 39.8 µM [inhibitor, single point]
CCS(=O)(=O)c1oc(-c2ccc(F)cc2)nc1S(=O)(=O)c1ccccc1		inconclusive: 39.8 µM [inhibitor, single point]
COc1ccc(N2CCN(S(=O)(=O)CCNC(=O)Cc3ccc(OC)c(OC)c3)CC2)cc1		inconclusive: 31.6 µM [inhibitor, single point]
COC(=O)c1ccc(NC(=O)CCc2c(C)nc3c(c(C)nn3C(C)(C)C)c2C)cc1		inconclusive: 35.5 µM [inhibitor, single point]
C=C1C(=C/C=C2\CCC[C@]3(C)[C@@H]([C@H](C)/C=C/[C@@H](O)C4CC4)CC[C@@H]23)C[C@@H](O)C[C@@H]1O	inactive: -11.3%	
C[C@@H](NC(=O)c1ncnc(N)c1Cl)c1ncc(C(=O)Nc2cc(C(F)(F)F)c(Cl)cn2)s1	inactive: -16.3%	
CC(C)(C)c1ccc(OCC(=O)NCC2(N3CCOCC3)CCCCC2)cc1		inconclusive: 31.6 µM [inhibitor, single point]

SMILES	activity change, negative = inhibition	Potency
COc1ccccc1-c1cc2nc(C)c(CCC(=O)NCCc3cccc(C)c3)c(C)n2n1		inconclusive: 25.1 µM [inhibitor, partial curve]
Cc1ccc(Cl)cc1N1CCN(C(=O)CSc2cc(=O)n(C)c3ccccc23)CC1		inconclusive: 22.4 µM [inhibitor, partial curve]
O=C(Nc1nc2ccc(F)cc2s1)c1nc(S(=O)(=O)Cc2ccccc2F)ncc1Cl		inconclusive: 39.8 µM [inhibitor, single point]
COc1ccc(C(=O)Nc2ccc3nc(SCC(=O)N(C)c4ccccc4)sc3c2)cc1		inconclusive: 39.8 µM [inhibitor, single point]
O=C(CSc1cn(CCNC(=O)c2cccc(C(F)(F)F)c2)c2ccccc12)Nc1ccc2c(c1)OCCO2		inconclusive: 39.8 µM [inhibitor, single point]
CN(C)C(=S)SC(=S)N(C)C		inconclusive: 1.58 µM [inhibitor, full curve, poor fit]
O=C(c1ccc(F)cc1)N1CCC(c2nc3ccccc3s2)CC1		inconclusive: 39.8 µM [inhibitor, partial curve, poor fit]
Cc1c(C(=O)Nc2ccc(F)c(C(F)(F)F)c2)sc2nc(-c3ccccc3)cn12		inconclusive: 39.8 µM [inhibitor, single point]
Cc1oc(-c2ccc(Cl)cc2)nc1CN1CCCC(C(=O)NCc2ccccc2)C1 (stereo not given)		inconclusive: 39.8 µM [inhibitor, single point]
CCOC(=O)Cc1ccc(NC(=O)N(Cc2ccc(CC)cc2)Cc2cn[nH]c2-c2ccc(OC)cc2)cc1		inconclusive: 28.2 µM [inhibitor, single point]
COc1cccc(C(=O)Nc2nc(-c3ccc(Br)cc3)ns2)c1		inconclusive: 39.8 µM [inhibitor, partial curve, poor fit]
Cc1ccccc1OCCn1c(CCNC(=O)C2CCCCC2)nc2ccccc21		inconclusive: 35.5 µM [inhibitor, single point]
CCc1ccc(OCCn2c(C3CC(=O)N(Cc4ccc(F)cc4)C3)nc3ccccc32)cc1 (stereo not given)		inconclusive: 39.8 µM [inhibitor, single point]
CCc1ccccc1-n1nnc(-c2nsc(NC(=O)c3ccc(C)c(C)c3)n2)c1C		inconclusive: 1.78 µM [inhibitor, full curve, poor fit]
O=C(Nc1ccccc1Cl)N1CCSc2ccccc21	inactive: -11.5%	
Cc1ccc(NC(=O)c2cnc3sc(N4CCOCC4)nn3c2=O)cc1N(C)C		inconclusive: 7.08 µM [inhibitor, partial curve]
O=C(c1ccc2c(c1)N(Cc1ccccc1)C(=O)c1ccccc1S2(=O)=O)N1CCN(Cc2ccccc2)CC1		inconclusive: 31.6 µM [inhibitor, single point]
CCOc1ccc(N2CC(NC(=O)C3CCCC3)CC2=O)cc1 (stereo not given)	inactive: 9.83%	
COc1ccc(OC)c(NS(=O)(=O)c2ccc(N3CCCCS3(=O)=O)cc2)c1		inconclusive: 10 µM [inhibitor, partial curve, poor fit]
O=C(O)C(O)Cc1ccc(O)c(O)c1 (stereo not given)	inactive: 6.87%	

Source: PubChem BioAssay AID1508623 (National Center for Advancing Translational Sciences (NCATS), 2021)
